Results taken from PubChem BioAssay AID652106 (National Center for Advancing Translational Sciences (NCATS), 2013).
In all, about 370,000 compounds went through this assay and about 500 (0.14%) were called active. Inconclusive means that the source gave no clear call. Such entries were picked first, then a sample of the others. The call rests on the fitted dose curve; in most records, active means well fitted activation curve with a large enough effect; inconclusive means small, poorly fitted or top-dose-only effect; inactive means no such curve, though single readings can be large or run the other way. Potencies of inconclusive entries are left out as doubtful fits.

Experiment: qHTS of alpha-syn Inhibitors; further: nearly all actives have a fitted effect of over 65% in size
Settings: Yeast expressing alpha-synuclein, BacTiter-Glo, 24 h; Potency: growth rescue unless noted; series mostly up to 46.1 µM
Excerpt: The goal of this project is to identify new chemical probes capable of reversing the toxicity associated with the Parkinson disease-related protein, alpha-synuclein. Compounds will be selected on their ability to restore growth in yeast cells expressing toxic levels of alpha-synuclein. These compounds will provide a complementary approach to deciphering the tangled mechanisms of toxicity and protection that we have uncovered through genome-wide genetic screens and are beginning to uncover in a large-scale proteomics analysis with mass spectroscopy. To this end, a miniaturized assay was developed to be screened against the Molecular Libraries Small Molecule Repository (MLSMR) to discover alpha-synuclein inhibitors. Please note that in the set-up this yeast-based assay compounds that inhibit as alpha-syn, have a read-out as activators. NIH Chemical Genomics Center [NCGC] NIH Molecular Libraries Probe Centers Network [MLPCN] MLPCN Grant: NS060957 Assay Submitter (PI): Susan Lindquist, Whitehead Institute/MIT
Dispense 2.5 microL yeast galactose medium per 1536-well plate, pin compound, dispense 2.5 microL alpha-synuclein expressing yeast in galactose medium at OD600=0.02 (pregrown in raffinose medium to mid-log phase) per well, incubate for 24 hr at 30 deg C, and cell growth will be measured using 5 microL of Bactiter/Glo reagent to entire plate and read using Luminescence Protocol in ViewLux.
Potency means the concentration at half of the fitted maximal effect; tags describe the fitted curve by direction and shape.

Compound | Potency
O=C(Nc1cc(=O)[nH]c(=O)[nH]1)c1cc(Cl)ccc1Cl | inconclusive [activator, single point]
Cc1ccc(C(=O)NCCSCc2ccc(Cl)cc2Cl)cc1[N+](=O)[O-] | inactive
Cc1ccc(CNC(=O)C2c3ccccc3C(=O)N3CCc4ccccc4C23)o1 (centres undefined) | inactive
Cc1ccc(NC(=O)CCn2cccc2)cc1C | inconclusive [activator, single point]
CCCOc1ccc(N2C(=O)CC(N3CCOCC3)C2=O)cc1 (centres undefined) | inconclusive [activator, partial curve]
Cc1c(Cl)cccc1NC(=O)CNc1cccc(C(F)(F)F)c1 | inconclusive [activator, single point]
Cc1ccc(C(=O)Nc2ccccc2-c2ccccc2)cc1S(=O)(=O)Nc1cccc(C)c1C | inconclusive [activator, partial curve]
CCOC(=O)[C@]12CCCC=C1N(CCC1=CCCCC1)C(=O)[C@H](CC(=O)N1CCN(C(=O)c3ccco3)CC1)C2 | inconclusive [activator, single point]
N#Cc1c(NC(=S)NC(=O)c2ccccc2)sc2c1CCCCC2 | inconclusive [activator, full curve]
Cc1nnc(NC(=O)c2ccc(S(=O)(=O)N3CC(C)CC(C)C3)cc2)o1 (centres undefined) | active: 15.8 µM
COc1ccccc1N1CCN(C(=O)CSc2nc3ccccc3nc2N2CCCCC2)CC1 | inconclusive [activator, single point]
CCOC(=O)C1=CCC(c2cccc(Cl)c2)N(S(=O)(=O)c2ccc(C)cc2)C1 (centres undefined) | inconclusive [activator, single point]
CCC(C)NC(=O)C1CCN(S(=O)(=O)c2cc([N+](=O)[O-])ccc2Cl)CC1 (centres undefined) | inactive
COc1cccc(NC(=O)N2CCc3nc(NCc4cccc(Oc5ccccc5)c4)ncc3C2)c1 | inconclusive [activator, single point]
O=C(O)c1ccc2nc(-c3ccccc3)c(-c3ccccc3)nc2c1 | inactive
CC(Sc1ccccc1)C(=O)N1CCN(S(=O)(=O)c2cccc(Br)c2)CC1 (centres undefined) | inconclusive [activator, single point]
O=CN1Cc2ccccc2-c2ccccc2C1 | inactive
O=C(COC(=O)c1ccc(Cl)nc1)NCc1ccc(F)cc1 | inactive
Cc1cccc(C(=O)N2CCC(=O)N([C@H](COCc3cccc(C(F)(F)F)c3)Cc3ccccc3)CC2)c1 | inconclusive [activator, single point]
O=S(=O)(Nc1cccc2cccnc12)c1ccc(S(=O)(=O)N2CCCC2)cc1 | inconclusive [activator, single point]
Cc1cc(Br)cn2c(Cc3ccsc3)c(-c3ccc(F)cc3)nc12 | inconclusive [activator, single point]
Cc1nc(-c2ccc(S(=O)(=O)N3CCN(c4cc(Cl)ccc4C)CC3)cc2)co1 | inconclusive [activator, partial curve]
O=C(O)c1cc(Sc2ccc(Br)cc2)nc2ccccc12 | inconclusive [activator, single point]

Compound | Potency
CCCCc1ccc(/C=C(\C#N)C(N)=S)s1 | inactive
Cc1cc(C)n(-c2ccc(C(=O)N3CCN(S(=O)(=O)c4cccc(Br)c4)CC3)cc2)n1 | inconclusive [activator, single point]
O=C(c1cc(COc2ccc(F)cc2Cl)on1)N1CCCCC1c1cccnc1 (centres undefined) | inconclusive [activator, single point]
O=C(Nc1ncnc2nc[nH]c12)c1ccccc1 | inconclusive [activator, single point]
CC1Cc2ccccc2N1C(=O)CN1C(=O)COc2ccccc21 (centres undefined) | inconclusive [activator, single point]
CCCCN1C[C@H](CSC)[C@@H](CC(=O)Nc2ccc(Br)cc2)C1=O | inconclusive [activator, single point]
Fc1ccc(-[n+]2nc(Nc3ccccc3)sc2-c2cccc(Cl)c2Cl)cc1 | inconclusive [activator, single point]
Cc1cc(C(=O)N2CCN(Cc3ccccc3)CC2)ccc1[N+](=O)[O-] | inactive
CC1=C(C(=O)N2CCOCC2)CC(CC(=O)NCCc2ccccn2)C(=O)N1CCC1=CCCCC1 (centres undefined) | inconclusive [activator, single point]
Nc1nc(Nc2ccccc2Cl)cc(=O)[nH]1 | inactive
COc1ccccc1-c1cccc([C@@H]2C[C@H]3[C@H](CON3C)CN2C(=O)CCc2ccccc2)c1 | inactive
COc1cc(NS(=O)(=O)c2ccc(C)cc2)c2ncccc2c1 | inconclusive [activator, single point]
Cc1ccc2oc(-c3ccc(C)c(NC(=O)COc4ccc(Cl)cc4)c3)nc2c1 | inactive
O=C(Cn1nc(Cl)nc1Cl)c1cc2ccccc2oc1=O | inactive
O=[N+]([O-])c1ccc(Nc2nc(NCCN3CCOCC3)nc(Nc3ccc(I)cc3)n2)cc1 | inactive
O=C(O)c1ccc(-c2nc(-c3ccccc3Cl)cs2)cc1 | inconclusive [activator, partial curve]
COc1cc(C(=O)N2CC(=O)Nc3ccccc32)cc(OC)c1OC | inconclusive [activator, single point]
Cc1ccc(Cl)cc1N1CCN(C(=O)CCS(=O)(=O)c2cccc3nonc23)CC1 | inconclusive [activator, single point]
O=S(=O)(c1cccc(F)c1)N1CCN(c2nc(-c3cccs3)nc3ccccc23)CC1 | inactive
O=C(NC1CCCCC1)c1ccc(-c2cccc([N+](=O)[O-])c2)o1 | inconclusive [activator, single point]
CCCNC(=O)C1(C)CCN(Cc2ccc(-c3ccccc3)o2)C1 (centres undefined) | inconclusive [activator, partial curve]
O=C(CNC(=O)c1ccc(Cl)cc1Cl)OCCOc1ccccc1 | inactive
CSCCC1C(=O)OC2(C)CC(C)(C)NC(=S)N12 (centres undefined) | inactive

Compound | Potency
CCC(C)(C)c1ccc(Oc2cccc(C(=O)O)c2)cc1 | active: 0.891 µM
S=C(Nc1ccccc1Cl)N(Cc1ccccc1)Cc1ccccn1 | inactive
Cc1ccc(SCc2cn3cc(Cl)ccc3n2)cc1 | inconclusive [activator, single point]
Clc1ccc(NN(Cc2ccncc2)c2ccc(Cl)cc2)cc1 | inconclusive [activator, single point]
CC(=O)N1CCC(C(=O)OCc2ccc(Cl)cc2)(c2ccccc2)CC1 | inconclusive [activator, single point]
CCc1ccc(NS(=O)(=O)c2cccc3nonc23)cc1 | inconclusive [activator, single point]
CCOC(=O)N1CCN(C(=O)C[C@@H]2C[C@@]3(C(=O)OC)CC(C)(C)CC=C3N(Cc3cccc4ccccc34)C2=O)CC1 | inconclusive [activator, single point]
COCCCNc1nc2nonc2nc1N1CCC(C(C)N2CCOCC2)CC1 (centres undefined) | inconclusive [activator, single point]
COc1cc(C2C(C(=O)c3cccs3)=C(O)C(=O)N2CCN2CCOCC2)ccc1OCCC(C)C (centres undefined) | inconclusive [activator, single point]
O=C(COc1ccccc1)N(Cc1cccc(F)c1)C1CCS(=O)(=O)C1 (centres undefined) | inconclusive [activator, single point]
CCc1ccc(Sc2cc(C(=O)NCCCN3CCCC(C)C3)c3ccccc3n2)cc1 (centres undefined) | inactive
CCC1Nc2ncnc(N3CCc4ccccc4C3)c2N(Cc2ccc(Br)cc2)C1=O (centres undefined) | inconclusive [activator, single point]
COc1ccc(CNC(=O)O[C@H]2Cn3c(=O)ccc(=O)n3[C@@H]3CN(S(=O)(=O)c4ccc(C)cc4)C[C@]23O)cc1OC | inconclusive [activator, single point]
O=C1Cc2ccccc2C(=O)N1Cc1cccc(Cl)c1 | inactive
COc1cccc(C2CC(=O)Nc3cc(C)c(C)cc32)c1 (centres undefined) | inconclusive [activator, single point]
COc1cccc(N2CCN(C(=O)Cn3cnc4onc(-c5ccc(F)cc5)c4c3=O)CC2)c1 | inconclusive [activator, single point]
Cc1nc(N2CCN(S(=O)(=O)c3cccs3)CC2)c2c(-c3ccccc3)c(C)sc2n1 | inconclusive [activator, single point]
COc1ccc(-n2c3c(c(=O)[nH]c2=O)C(NS(=O)(=O)c2ccc(Cl)cc2)(C(F)(F)F)C(=O)N3)cc1 (centres undefined) | inactive
Nc1[nH]c(=O)[nH]c(=O)c1N=Cc1ccccc1 | inconclusive [activator, single point]
COc1ccccc1CNC(=O)c1ccccc1N | inactive
COc1ccc(/C=C/C(=O)c2ccc([N+](=O)[O-])o2)cc1OC | inactive
Cc1ccc(S(=O)(=O)N2CCN=C2SCc2ccccc2)cc1 | inconclusive [activator, single point]
COc1cc2c(cc1OC)C1=C(C#N)CC/C(=N\S(=O)(=O)c3ccccc3)N1CC2 | inconclusive [activator, single point]
